# Assay results: the supplement of paper PMC8728848
# Some of the results follow.
# What was measured:
# Assay in all cases: glycan array binding signal (z-score within array); higher = stronger binding
# Settings in all cases: glycan notation: IUPAC condensed, linker removed
# [1] = molecular target: Neu5Ac(a2-3)Gal(b1-4)GlcNAc6S
# Method in brief: (§1)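 The binding signal is a Z-score computed within each array. Data were drawn from 3228 arrays in the Consortium for Functional Glycomics database, restricted to those with a known protein sequence. Scores were averaged over arrays of the same protein sequence at different concentrations or buffers, and over linkers, and negative values can be taken as non-binding.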
# [2] = molecular target: Neu5Ac(a2-3)Gal(b1-4)[Fuc(a1-3)]GlcNAc
# Method in brief: as §1
# [3] = molecular target: Neu5Ac(a2-3)Gal(b1-4)[Fuc(a1-3)]GlcNAc(b1-3)Gal
# Method in brief: as §1
# [4] = molecular target: Neu5Ac(a2-3)Gal(b1-4)[Fuc(a1-3)]GlcNAc(b1-3)Gal(b1-4)GlcNAc
# Method in brief: as §1
# [5] = molecular target: Neu5Ac(a2-3)Gal(b1-4)[Fuc(a1-3)]GlcNAc(b1-3)Gal(b1-4)[Fuc(a1-3)]GlcNAc(b1-3)Gal(b1-4)[Fuc(a1-3)]GlcNAc
# Method in brief: as §1
# [6] = molecular target: Neu5Ac(a2-3)Gal(b1-4)[Fuc(a1-3)]GlcNAc6S
# Method in brief: as §1
# [7] = molecular target: Neu5Ac(a2-3)Gal6S(b1-4)GlcNAc
# Method in brief: as §1
# [8] = molecular target: Neu5Ac(a2-3)Gal6S(b1-4)[Fuc(a1-3)]GlcNAc
# Method in brief: as §1
# Neu5Ac(a2-3)GalNAc = molecular target: Neu5Ac(a2-3)GalNAc
# Method in brief: as §1
# [9] = molecular target: Neu5Ac(a2-3)GalNAc(b1-4)GlcNAc
# Method in brief: as §1
# [10] = molecular target: Neu5Ac(a2-3)[GalNAc(b1-4)]Gal(b1-4)Glc
# Method in brief: as §1
# [11] = molecular target: Neu5Ac(a2-3)[GalNAc(b1-4)]Gal(b1-4)GlcNAc
# Method in brief: as §1
# [12] = molecular target: Neu5Ac(a2-3)[Neu5Ac(a2-6)]GalNAc
# Method in brief: as §1
# Neu5Ac(a2-6)Gal = molecular target: Neu5Ac(a2-6)Gal
# Method in brief: as §1
# Neu5Ac(a2-6)Gal(b1-4)Glc = molecular target: Neu5Ac(a2-6)Gal(b1-4)Glc
# Method in brief: as §1
# [13] = molecular target: Neu5Ac(a2-6)Gal(b1-4)GlcNAc
# Method in brief: as §1
# [14] = molecular target: Neu5Ac(a2-6)Gal(b1-4)GlcNAc(b1-3)Gal(b1-4)GlcNAc
# Method in brief: as §1
# [15] = molecular target: Neu5Ac(a2-6)Gal(b1-4)GlcNAc(b1-3)Gal(b1-4)[Fuc(a1-3)]GlcNAc(b1-3)Gal(b1-4)[Fuc(a1-3)]GlcNAc
# Method in brief: as §1
# [16] = molecular target: Neu5Ac(a2-6)Gal(b1-4)GlcNAc6S
# Method in brief: as §1
# Neu5Ac(a2-6)GalNAc = molecular target: Neu5Ac(a2-6)GalNAc
# Method in brief: as §1
# [17] = molecular target: Neu5Ac(a2-6)GalNAc(b1-4)GlcNAc
# Method in brief: as §1
# Neu5Ac(a2-8)Neu5Ac = molecular target: Neu5Ac(a2-8)Neu5Ac
# Method in brief: as §1
# [18] = molecular target: Neu5Ac(a2-8)Neu5Ac(a2-3)Gal(b1-4)Glc
# Method in brief: as §1
# [19] = molecular target: Neu5Ac(a2-8)Neu5Ac(a2-3)[GalNAc(b1-4)]Gal(b1-4)Glc
# Method in brief: as §1
# [20] = molecular target: Neu5Ac(a2-8)Neu5Ac(a2-8)Neu5Ac
# Method in brief: as §1
# [21] = molecular target: Neu5Ac(a2-8)Neu5Ac(a2-8)Neu5Ac(a2-3)Gal(b1-4)Glc
# Method in brief: as §1
# [22] = molecular target: Neu5Ac(a2-8)Neu5Ac(a2-8)Neu5Ac(a2-3)[GalNAc(b1-4)]Gal(b1-4)Glc
# Method in brief: as §1
# [23] = molecular target: Neu5Ac(a2-8)Neu5Ac(a2-8)Neu5Ac(a2-8)Neu5Ac(a2-3)[GalNAc(b1-4)]Gal(b1-4)Glc
# Method in brief: as §1
# Neu5Ac(b1-6)GalNAc = molecular target: Neu5Ac(b1-6)GalNAc
# Method in brief: as §1
# [24] = molecular target: Neu5Ac(b2-6)Gal(b1-4)GlcNAc
# Method in brief: as §1
# [25] = molecular target: Neu5Ac9Ac(a2-6)Gal(b1-4)GlcNAc
# Method in brief: as §1
# [26] = molecular target: Neu5Gc(a2-3)Gal(b1-3)GlcNAc
# Method in brief: as §1
# [27] = molecular target: Neu5Gc(a2-3)Gal(b1-3)[Fuc(a1-4)]GlcNAc
# Method in brief: as §1
# Neu5Gc(a2-3)Gal(b1-4)Glc = molecular target: Neu5Gc(a2-3)Gal(b1-4)Glc
# Method in brief: as §1
# [28] = molecular target: Neu5Gc(a2-3)Gal(b1-4)GlcNAc
# Method in brief: as §1
# [29] = molecular target: Neu5Gc(a2-3)Gal(b1-4)[Fuc(a1-3)]GlcNAc
# Method in brief: as §1
# [30] = molecular target: Neu5Gc(a2-6)Gal(b1-4)GlcNAc
# Method in brief: as §1
# Neu5Gc(a2-6)GalNAc = molecular target: Neu5Gc(a2-6)GalNAc
# Method in brief: as §1
binder,measurement,setting,value
FaeGab (Escherichia coli) (protein) WMTGDFNGSVDIGGSITADDYRQKWEWKVGTGLNGFGNVLNDLTNGGTKLTITVTGNKPILLGRTKEAFATPVSGGVDGIPQIAFTDYEGASVKLRNTDGETNKGLAYFVLPMKNAEGTKVGSVKVNASYAGVFGKGGVTSADGELFSLFADGLRAIFYGGLTTTVSGAALTSGSAAAARTELFGSLSRNDILGQIQRVNANITSLVDVAGSYREDMEYTDGTVVSAAYALGIANGQTIEATFNQAVTTSTQWSAPLNVAITYY,glycan array binding signal (z-score),[1],-0.446
same,glycan array binding signal (z-score),[2],-0.476
same,glycan array binding signal (z-score),[3],-0.337
same,glycan array binding signal (z-score),[4],-0.364
same,glycan array binding signal (z-score),[5],-0.196
same,glycan array binding signal (z-score),[6],-0.299
same,glycan array binding signal (z-score),[7],0.755
same,glycan array binding signal (z-score),[8],-0.268
same,glycan array binding signal (z-score),Neu5Ac(a2-3)GalNAc,-0.472
same,glycan array binding signal (z-score),[9],-0.36
same,glycan array binding signal (z-score),[10],-0.508
same,glycan array binding signal (z-score),[11],-0.344
same,glycan array binding signal (z-score),[12],-0.489
same,glycan array binding signal (z-score),Neu5Ac(a2-6)Gal,-0.488
same,glycan array binding signal (z-score),Neu5Ac(a2-6)Gal(b1-4)Glc,-0.411
same,glycan array binding signal (z-score),[13],-0.473
same,glycan array binding signal (z-score),[14],-0.305
same,glycan array binding signal (z-score),[15],-0.433
same,glycan array binding signal (z-score),[16],-0.427
same,glycan array binding signal (z-score),Neu5Ac(a2-6)GalNAc,-0.095
same,glycan array binding signal (z-score),[17],-0.38
same,glycan array binding signal (z-score),Neu5Ac(a2-8)Neu5Ac,-0.361
same,glycan array binding signal (z-score),[18],-0.336
same,glycan array binding signal (z-score),[19],-0.407
same,glycan array binding signal (z-score),[20],-0.385
same,glycan array binding signal (z-score),[21],-0.364
same,glycan array binding signal (z-score),[22],-0.444
same,glycan array binding signal (z-score),[23],-0.352
same,glycan array binding signal (z-score),Neu5Ac(b1-6)GalNAc,0.044
same,glycan array binding signal (z-score),[24],-0.473
same,glycan array binding signal (z-score),[25],-0.533
same,glycan array binding signal (z-score),[26],-0.469
same,glycan array binding signal (z-score),[27],-0.192
same,glycan array binding signal (z-score),Neu5Gc(a2-3)Gal(b1-4)Glc,-0.472
same,glycan array binding signal (z-score),[28],-0.461
same,glycan array binding signal (z-score),[29],-0.455
same,glycan array binding signal (z-score),[30],-0.5
same,glycan array binding signal (z-score),Neu5Gc(a2-6)GalNAc,0.239
